This is one part of the list. Repeats are few or missing, and single values can be far off.
System: LB2518-MEL
Assay: cell count relative to DMSO control; melanoma cells; higher = more viable cells
Conditions: library dose: low library concentration; 72 h
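Also: cell number obtained by counting DAPI-stained nuclei in high-throughput microscope images with image analysis software, screen run in 1,536-well plates.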

SMILES	cell count [%]
C[C@@H](Oc1cc(-c2cnn(C3CCNCC3)c2)cnc1N)c1c(Cl)ccc(F)c1Cl [Crizotinib] + CO[C@H]1C[C@@H]2CC[C@@H](C)[C@@](O)(O2)C(=O)C(=O)N2CCCC[C@H]2C(=O)O[C@H]([C@H](C)C[C@@H]2CC[C@@H](OCCO)[C@H](OC)C2)CC(=O)[C@H](C)/C=C(\C)[C@@H](O)[C@@H](OC)C(=O)[C@H](C)C[C@H](C)/C=C/C=C/C=C/1C [everolimus] (first compound 0.2 µM, partner dose 0.02 µM)	77.7
CN1CCN(c2ccc3nc(-c4c(N)c5c(F)cccc5[nH]c4=O)[nH]c3c2)CC1 [Dovitinib] + CC(=O)c1c(C)c2cnc(Nc3ccc(N4CCNCC4)cn3)nc2n(C2CCCC2)c1=O [palbociclib] (first compound 0.1 µM, partner dose 0.04 µM)	72.5
CS(=O)(=O)CCNCc1ccc(-c2ccc3ncnc(Nc4ccc(OCc5cccc(F)c5)c(Cl)c4)c3c2)o1 [lapatinib] + C#Cc1cccc(Nc2ncnc3cc(OCCOC)c(OCCOC)cc23)c1 [erlotinib] (first compound 0.8 µM, partner dose 0.8 µM)	90.6
C[C@@H](Oc1cc(-c2cnn(C3CCNCC3)c2)cnc1N)c1c(Cl)ccc(F)c1Cl [Crizotinib] + CN1CCN(c2ccc3nc(-c4c(N)c5c(F)cccc5[nH]c4=O)[nH]c3c2)CC1 [Dovitinib] (first compound 0.2 µM, partner dose 0.1 µM)	76.1
CS(=O)(=O)CCNCc1ccc(-c2ccc3ncnc(Nc4ccc(OCc5cccc(F)c5)c(Cl)c4)c3c2)o1 [lapatinib] + OCc1c[nH]c2ccccc12 [Indole-3-carbinol] (first compound 0.8 µM, partner dose 0.8 µM)	97.9
CNC(=O)c1cc(Oc2ccc(NC(=O)Nc3ccc(Cl)c(C(F)(F)F)c3)cc2)ccn1 [sorafenib] + C#Cc1cccc(Nc2ncnc3cc(OCCOC)c(OCCOC)cc23)c1 [erlotinib] (first compound 0.4 µM, partner dose 0.8 µM)	121
C=CCNC1=C2C[C@@H](C)C[C@H](OC)[C@H](O)[C@@H](C)/C=C(\C)[C@H](OC(N)=O)[C@@H](OC)/C=C\C=C(/C)C(=O)NC(=CC1=O)C2=O [Tanespimycin] + Cn1c(Nc2ccc(C(F)(F)F)cc2)nc2cc(Oc3ccnc(-c4ncc(C(F)(F)F)[nH]4)c3)ccc21 [CHIR265] (first compound 0.002 µM, partner dose 0.08 µM)	50
CN1CCN(c2ccc3nc(-c4c(N)c5c(F)cccc5[nH]c4=O)[nH]c3c2)CC1 [Dovitinib] + OCc1c[nH]c2ccccc12 [Indole-3-carbinol] (first compound 0.1 µM, partner dose 0.8 µM)	86.9
CNC(=O)c1cc(Oc2ccc(NC(=O)Nc3ccc(Cl)c(C(F)(F)F)c3)cc2)ccn1 [sorafenib] + CS(=O)(=O)CCNCc1ccc(-c2ccc3ncnc(Nc4ccc(OCc5cccc(F)c5)c(Cl)c4)c3c2)o1 [lapatinib] (first compound 0.4 µM, partner dose 0.8 µM)	95.8
CN1CCN(c2ccc3nc(-c4c(N)c5c(F)cccc5[nH]c4=O)[nH]c3c2)CC1 [Dovitinib] + CS(=O)(=O)CCNCc1ccc(-c2ccc3ncnc(Nc4ccc(OCc5cccc(F)c5)c(Cl)c4)c3c2)o1 [lapatinib] (first compound 0.1 µM, partner dose 0.8 µM)	99.2
CNC(=O)c1cc(Oc2ccc(NC(=O)Nc3ccc(Cl)c(C(F)(F)F)c3)cc2)ccn1 [sorafenib] + Nc1nc(F)nc2c1ncn2[C@@H]1O[C@H](CO)[C@@H](O)[C@@H]1O [fludarabine] (first compound 0.4 µM, partner dose 0.2 µM)	93.4
CNC(=O)c1cc(Oc2ccc(NC(=O)Nc3ccc(Cl)c(C(F)(F)F)c3)cc2)ccn1 [sorafenib] + COc1ccc(Cl)c(Nc2nc3ccccc3nc2NS(=O)(=O)c2cccc(NC(=O)C(C)(C)N)c2)c1 [XL147] (first compound 0.4 µM, partner dose 0.8 µM)	116
CS(=O)(=O)CCNCc1ccc(-c2ccc3ncnc(Nc4ccc(OCc5cccc(F)c5)c(Cl)c4)c3c2)o1 [lapatinib] + C=C(c1ccc(C(=O)O)cc1)c1cc2c(cc1C)C(C)(C)CCC2(C)C [Bexarotene] (first compound 0.8 µM, partner dose 2 µM)	94.5
